B1: CPEB3 Ribozyme (parent)
chain: UAACAGGGGGCCACAGCAGAAGCGUUCACGUCGCAGCCCCUGUCAGAUUCUGGUGAAUCUGCGAAUUCUGCUGUAUAUCUC

From the RNAGym collection of RNA variant scans (doi:10.1093/nar/gkz1192) come the findings set out here.

Read counts are not given, so values of variants with three or more changes are uncertain.

Variants of B1 are the subject of this series. Briefly: self-cleavage, relative activity (ratio to wild type); higher = more cleavage; in vitro, sequencing. In a few lines: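 Relative activity compares each variant's cleaved/total read fraction with that of the unmutated ribozyme. To get these fractions, barcoded CPEB3 ribozyme libraries from rounds of error-prone PCR were transcribed with T7 RNA polymerase for 5 hours at 37°C and then given 15 min of DNase I treatment before EDTA was added. The RNAs were reverse transcribed with template switching and sequenced on Illumina, and DNA sequencing linked barcodes to variants. A minimum of 5 reads applied, and three batches were averaged.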
Take UAACUGGGGGCCACAGCAGAAGCGUUCACGUCGCAGCCCCUGUCAGAUUCUGGCGUAUCUGCGAAUCCUGCUGUAUAUCCC: the self-cleavage was 0.23. As for UAACUGGGGGCCACAGCAGAAGCGUUCACGUCGCAGCCCCUGUCAGAUCCUGGUGAAUCUGCGAACGCUGCUGUAUAUCUC, the self-cleavage was 0.31. UAACUGGGGGCCACAGCAGAAGCGUUCACGUCGCAGCCCCUGUCAGAUUCUGGUGAACCUGCGAAUUCUGUUGUAUGUCUC: the self-cleavage came to 0.35.

Take UAACUGGGGGCCACAGCAGAAGCGUUCACGUCGCAGCCCCUGUCAGACUCUGGAGUAUCUGCGAACUCUGCUGUAUAUCCC: the self-cleavage was 0.12. Under UAACUGGGGGCCACAGCAGAAGCGUUCACGUCGCAGCCCCUGUCAGAUUCUGGUGAAUCUGCGAAUUCUGCUGUACUUCUC stands 1.14; under UAACUGGGGGCCACAGCAGAAGCGUCCACGUCGCAGCCCGUGUCAGAUUCUGGUGAAACUGCGGACUCUGCUGUAUGUCUC, 0.21; under UAACUGGGGGCCACAGCAGAAGCGUUCACGUCGCAGCCCCUGUCAGAUUCAGGUGAAUCUCCGAAUUCUGCUGUAUAUCUC, 0.68. Under UAACUGGGGGCCACAGCAGAAGCGUUCACGUCGCAGCCCCUGUCAGAUCCUGGUGAAUCUGCGAAUUCUGCUGUAUAUCAC stands 0.73; under UAACAAGGGGCCUCAGCAGAAGCGUUCACGUCGCUGCCCCUGUCGGAUUCUGGUGAAUCUGCGAAUUCUGCUGUAUAUCUC, 0.07. In the case of UAACUGGGGGCCACAGCAGAAGCGUUCACGUCGCAGCCCCUGCCAGAUUCUGGUGAAUCUGCGGAUUCUGCUGUAUAUCUC, the self-cleavage stood at 0.47. Under UAACAAGGGGCCACGGCAGAAGCGUUCACGUCGCAGCCCCCGUCAGAUUCUGGUGAAUCUGCGAAUUCUACAGUAUAUCUC stands 0.1.

Turning to UAACUGGGGGCCACAGCAGAAGCGUUCACGUCGCAGCCCCUGUCAGAUCCUGGAUAAUCUGCGAAUUCUGCUGUGUAUCUC, the self-cleavage was found to be 0.23. Turning to UAACAAGGGGCCCCAGCAGAAGCGUUCACGCCGCAGCCCCUGCCAGAUUCUGGUGAAUCUGCGAAUUCUGCUGUAUAUCUC, the self-cleavage was found to be 0.27. Take UAACUGGGGGCCACAGCAGAAGCGUUCACGUCGCAGCCCCUGUCAGAUUCUGGUGAAUCCGGGAAUUCUGCUGUAUACCUC: the self-cleavage turned out to be 0.31. Next, UAACUGGGGGCCACAGCAGAAGCGUUCACGUCGCAGCCCCUGUCAGACCCUGGUGAGUCUGCGAAUUCUGCUGUAUAUCUC: 0.91. Next, UAACUGGGGGCCACAGCAGAAGCGUUCACGUCGCAGCCCCUGUCAGAUUCAGGUGAAUCUGCGACUUCUGCUGUAUAUCUC: 0.13; UAACUGGGGGCCACAGCAGAAGCGUUCACGUCGCAGCCCCUGACAAAUUCUGGUGAACCUGCGAAUUCUGCUGUGUAUCUC: 0.09; UAACUGGGGGCCACAGCAGAAGCGUUCACGUCGCAGCCCCUGUCAGAGUCUGGUGAAUCUGCGAUUCCUGCUGUAUAUCUC: 0.19. As to UAACUGGGGGCCACAGCAGAAGCGUUCACGUCGCAGCCCCUGUCAGAUUCUGGUGAAUCCGGGAAUUCUGCCGUAUAUCUC, the self-cleavage worked out at 0.43. Next, UAACAAGGGGCCGCAGCGGAAGCGUUCACGUCGCAGCCCCUGCCAGAUUCUGGUGAAUCUGCGAAUUCUGCUGUAUACCUC: 0.06; UAACUGGGGGCCACAGCAGAAGCGUUCACGUCGCAGCCCCUGGCAAAUUCUGGUGAAUCUGCGAAUUCUGCUGUAUAUCUC: 0.47; UAACUGGGGGCCACAGCAGAAGCGUUCACGCCGCAGCCCCUGUCGGAUUCUGGUGAAUCUGCGAAUUCUGCUGUAUAUCUC: 0.63. As for UAACUGGGGGCCACAGCAGAAGCGUUCACGUCGCAGCCCCUGUCAGAUUCUGGCGAGUCUGCGAAUUCUGCUGUAUAUCUC, the self-cleavage was 0.58. Turning to UAACUGGGGGCCACAGCAGAAGCGUUCACGACGCAGCCCCUGUCAGAUUCUGGUGAAUCUGCGAAUUCAGCUGUAUAUCUC, the self-cleavage stood at 0.26. Under UAACUGGGGGCCACAGCAGAAGCGUUCACGUCGCAGCCCCGGUCAGAUUCUGGUGAAUCUGCGAGUUCUGCUGUAUAUCUC stands 0.23; under UAACAAGGGGCCACGGCAGAAGCGUUCACGUCGCAGCCCCUGUCAGAUUCUGGUGUAUCUGCGAAUUCCGCUGAAUAUCUC, 0.06; under UAACUGGGGGCCACAGCAGAAGCGUUCACGUCGCAGCCCCUGUCAGAUUCCGGUGAGUCUGCGAAUUCUGCUGUAUAUCUC, 0.88.

In the case of UAACUGGGGGCCACAGCAGAAGCGUUCACGUCGCAGCCCCAGUCAGAUUCUGGUGAACCUGCGAAUUCUGCUGUAUAUCUC, the self-cleavage is 0.28. Next, UAACUGGGGGCCACAGCAGAAGCGUCCAUGUCGCAGCCCCUGUCAGAUUCUGGUGAAUCUGCGAGUUCUGCAGUAUAUCUC: 0.17; UAACUGGGGGCCACAGCAGAAGCGUUCACGCCGCAGCCCCUGUCAGAUUCAGGUGGAUCUGCGAAUUCUGCUGUAUAUCUC: 0.3; UAACAAGGGGCCGCAGCAGAAGCGUUCACGUCGCGGCUCCUGUCAGAUUCUGGUGAAUCUGCGAAUUCUGCUGUAUACCUC: 0.35. For UAACUGGGGGCCACAGCAGAAGCGUUCACGUCGCAGCCCCUGUCAGAUUCUGGUGAAUCCGCGGAUUCUGCUGUAUAUCUC, the self-cleavage amounted to 0.56. Next, UAACAAGGGGCCACGGCAGAUCCGUUCGCGUCGCAGCCCCUGUCAGAUUCUGGUGAAUCUGCGAAUUCUGCUGUAUAUCUC: 0.41; UAACUGGGGGCCACAGCAGAAGCGUCCACGUCGCAGCCCCUGUCAGAUUCUGGUGAAUCUGCGAAUUCCGCUGUAUAUCUC: 0.2.
